# Source: the supplement of paper PMC11283458
# Some of the results follow. Single values are uncertain, as repeats are few or missing.
# Test system: Mast2 alternative exon (endogenous)
# Assay: delta PSI of alternative exon relative to 0.4% DMSO control (RT-PCR) (percentage points); higher = more exon inclusion
# Conditions: concentration: not stated (optimised per compound); Neuro-2a
# Procedure: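 Reads PSI of the Mef2d reporter microexon and of endogenous mouse neural alternative exons. dPSI is relative to the 0.4% DMSO control, single replicate.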
# 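Note: exons read include endogenous Mef2d, Mast2, Ergic3 and Trappc9 microexons plus the longer neural-regulated Zdhhc20, Mgrn1 and Asph cassette exons, alongside the reporter microexon.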
row,SMILES,delta PSI of alternative exon
1,S=C(NN=Cc1ccccn1)NC1CC2C=CC1C2 (stereo not given),0.946
2,c1ccc(C2=Nc3ccccc3NC(c3ccccc3)C2)cc1 (stereo not given),1.34
3,Cc1onc(-c2ccccc2)c1C(=O)Nc1c(C(C)(C)C)nn(C)c1C(C)(C)C,1.3
4,COc1cc(/C=C/C(=O)N2CCC=CC2=O)cc(OC)c1OC [Piperlongumine],-8.38
5,Cc1ccc(S(=O)(=O)N/N=C/c2cc(Cl)ccc2O)cc1,21.2
6,Nc1nc(Nc2ccc(S(N)(=O)=O)cc2)nn1C(=S)Nc1c(F)cccc1F [Cdk1/2 Inhibitor III],-11.3
7,O=C(Nc1cccc([N+](=O)[O-])c1)C(C(=O)Nc1cccc([N+](=O)[O-])c1)C12CC3CC(CC(C3)C1)C2,-0.646
8,Cn1cc(CNCC2CCN(c3ncc(C(=O)NO)cn3)CC2)c2ccccc21,12.5
9,CC(=O)OC1(C(=O)/C=C/c2ccccc2)CCCCC1,-3.22
10,O=S(=O)(N/N=C/c1cc(Cl)cc(Cl)c1O)c1ccc(Cl)cc1,16.7
11,CCCCc1nc2cc(/C=C/C(=O)NO)ccc2n1CCN(CC)CC,13.7
12,O=C(C=C(C(=O)c1ccccc1)c1ccccc1)c1ccc2c(c1)OCCO2,0.307
13,CC(/C=C/C(=O)NO)=C\[C@@H](C)C(=O)c1ccc(N(C)C)cc1 [Trichostatin A],-6.41
14,O=C(Nc1ccc2[nH]nc(-c3ccncc3)c2c1)[C@@H]1CCN(CC(=O)N2CCN(c3ccc(-c4ncccn4)cc3)CC2)C1,4.11
15,Nc1ccc(S(=O)(=O)Nc2cccc(C(F)(F)F)c2)cc1,3.84
16,N#Cc1c(-c2cccs2)oc(-n2cccc2)c1-c1cc(Br)cs1,2.52
17,COc1ccc(C=Cc2nc3ccccc3s2)cc1OC,-0.0263
18,Cc1[nH]c2ccccc2c1CCNCc1ccc(/C=C/C(=O)NO)cc1 [Panobinostat],15.4
19,CC1=C(/C=C/C(C)=C/C=C/C(C)=C/C(=O)Nc2ccc(O)cc2)C(C)(C)CCC1 [Fenretinide],13
20,NC(=NOC(=O)c1c(F)cccc1Cl)c1ccc([N+](=O)[O-])o1,-13.3

row,SMILES,delta PSI of alternative exon
1,O=C(C=c1[nH]c(=O)c(=Cc2ccccc2O)s1)c1cccs1,-8.36
2,CN(C)S(=O)(=O)c1ccc2c(c1)/C(=C/c1cc3c([nH]1)CCCC3)C(=O)N2,4.68
3,CCN(CC)Cc1ccc2cc(COC(=O)Nc3ccc(C(=O)NO)cc3)ccc2c1 [Givinostat],15.9
4,Cc1onc(-c2c(Cl)cccc2Cl)c1C(=O)SCC(=O)Nc1ccc(F)cc1,-7.23
5,C(=C\c1ccccc1)/C(=N/Nc1ccccc1)c1ccccc1,1.88
6,Cc1cc(C(=O)NOCCO)c(Nc2ccc(I)cc2F)n(C)c1=O,23.6
7,N#Cc1c(O)nsc1Nc1ccc(Cl)cc1,-2.02
8,O=C(C=Cc1cc([N+](=O)[O-])ccc1Sc1ccc(C(F)(F)F)cn1)Nc1ccccc1,1.39
9,O=C(NCCNc1ccc(C(F)(F)F)cn1)Nc1ccccc1Cl,-26.7
10,CC(=O)Nc1ccc([C@H](C)C(=O)Nc2ncc(C(C)C)s2)cc1,-17.9
11,O=c1c(Cc2ccccc2Cl)c(-c2ccccc2)oc2ccccc12,1.35
12,Cc1cc(NC(=O)Nc2cc(Cl)cc(Cl)c2)on1,2.53
13,N#CC1=C(N)Oc2ccc3ccccc3c2C1c1cccc(F)c1 (stereo not given),-2.12
14,C(=NNc1ccc2ccccc2n1)c1ccccn1,-0.196
15,CC(C)(C)c1ccc2cc(C#N)c(C#N)cc2c1,-8.48
16,O=C1OC(CC(=O)c2csc3ccccc23)c2ccccc21 (stereo not given),1.61
17,O=C(Nc1ccc(-n2nc(C(F)(F)F)cc2-c2cccs2)cc1)c1cccs1,4.2
18,O=C(CCCCCN1C(=O)c2cccc3cccc(c23)C1=O)NO [Scriptaid],8.41
19,COc1ccc(C(=O)C=C(C(=O)c2ccccc2)c2ccccc2)cc1CN1CCOCC1,-5.17
20,CNC(=S)N/N=C/c1ccccc1O,9.91
